The campaign covered roughly 45,000 compounds. About 65 (0.1%) were called active. The call rests on the fitted dose curve; in most records, active means well fitted activation curve with a large enough effect; inconclusive means small, poorly fitted or top-dose-only effect; inactive means no such curve, though single readings can be large or run the other way. Some of the results follow.
Target: Galactocerebrosidase (Homo sapiens) (UniProt P54803)
Assay: A Novel Cell-Based Assay to Identify Small Molecules for B -Galactocerebrosidase; further: 0% is about no effect; nearly all actives have a fitted effect of over 65% in size
Details: 145M-Twi-hGALC-G270D cells, HMU-beta-Gal fluorescence, 48 h; series mostly up to 57.5 µM; activation: at the top concentration
Method in brief: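 qHTS, 1536-well; 145M-Twi-hGALC-G270D cells (WT line also made) in DMEM/F12 + 10% FBS; compound incubation on live cells; HMU-β-gal 0.1 mM final, pH 5.2, NaTC; carbonate stop; fluorescence increase = enhanced residual activity.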

UniProt P54803, sequence (P54803 whole entry, looked up): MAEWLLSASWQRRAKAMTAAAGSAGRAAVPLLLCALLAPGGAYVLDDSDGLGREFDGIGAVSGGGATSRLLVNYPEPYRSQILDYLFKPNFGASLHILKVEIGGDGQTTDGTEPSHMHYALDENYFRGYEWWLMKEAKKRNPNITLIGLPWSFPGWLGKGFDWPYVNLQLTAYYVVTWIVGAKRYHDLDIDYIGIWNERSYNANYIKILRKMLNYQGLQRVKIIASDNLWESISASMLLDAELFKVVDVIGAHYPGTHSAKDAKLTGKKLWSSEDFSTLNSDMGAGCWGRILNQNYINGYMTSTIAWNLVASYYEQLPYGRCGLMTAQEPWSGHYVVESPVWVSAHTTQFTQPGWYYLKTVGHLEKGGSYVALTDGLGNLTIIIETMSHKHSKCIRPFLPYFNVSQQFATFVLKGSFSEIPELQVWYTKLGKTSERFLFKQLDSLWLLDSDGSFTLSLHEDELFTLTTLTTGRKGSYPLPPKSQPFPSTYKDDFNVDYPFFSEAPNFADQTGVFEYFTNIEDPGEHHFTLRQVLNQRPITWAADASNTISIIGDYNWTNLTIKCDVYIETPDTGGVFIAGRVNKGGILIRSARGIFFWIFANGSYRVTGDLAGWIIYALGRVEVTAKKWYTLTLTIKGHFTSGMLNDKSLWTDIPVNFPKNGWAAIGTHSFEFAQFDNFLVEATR

activation, inactive:
O=C(CSCc1ccc(F)cc1)N1CCc2c([nH]c3ccccc23)C1c1ccc(Cl)cc1 (stereo not drawn) -9.8%
COc1ccc(CCNC(=O)C(C)n2c(=O)cc(-c3ccccc3)c3c(C)nn(C)c32)cc1OC (stereo not drawn) -5.08%
CCSc1nc(-c2ccccc2F)nc2c1Cc1c(CO)cnc(C)c1O2 -12.5%
COc1cccc(N2CCN(C(=O)c3nn(C)c4c3CSc3ccc(C)cc3-4)CC2)c1 -17.2%
CCC(=O)N1CCc2cc(CNC(=O)c3ccc(F)cc3)ccc21 -8.08%
Cc1ccc(-c2nc3sccn3c2Nc2ccc(C)c(C)c2)cc1 1.64%
CCOc1ccc(N(CC)C(=O)c2cc3c(s2)-c2ccccc2OC3)cc1 -0.474%
CC1CCN(c2nc3ccc(C(=O)N4CCN(c5ccccc5)CC4)cc3s2)CC1 -9.76%
CCOC(=O)c1cc(OC(=O)c2ccccc2Cl)n(-c2ccccc2)n1 -18%
COc1ccc(OC)c(NC(=O)[C@H](CSCc2ccccc2)N2Cc3ccccc3C2=O)c1 -10.8%
COC(=O)c1cc2sc(Cl)cc2n1CC(=O)Nc1cc(C)cc(C)c1 -34.1%
O=C(NCc1ccccc1F)c1ccc(CSc2nc3cccnc3n2Cc2ccccc2)cc1 -11.9%
Cc1nn2c(=O)cc(COC(=O)c3ccccc3NC(=O)COc3ccccc3C)nc2s1 -7.07%
Cc1ccc(SCc2nc(-c3ccc(C(=O)NCCc4ccc(Cl)cc4)cc3)oc2C)cc1 -10.8%
CCN(CC)CCOc1ccc(Cc2ccccc2)cc1 -4.99%
Cc1ccccc1NC(=O)Cn1c(=O)n(Cc2ccccc2)c(=O)c2c(C)c(C)sc21 -8.58%
N#CC1=C2SCN(C3CCCCC3)CN2C(=O)CC1c1ccc(Cl)cc1 (stereo not drawn) -5.12%
COC(=O)c1cc2occc2n1CC(=O)Nc1ccc(N(C)C)cc1 -7.92%
Cc1ccc(CNC(=O)Cn2c(=O)n(-c3ccc(C)cc3)c(=O)c3c2c2cc(C)ccc2n3C)cc1 12.1%
Cc1ccc(CNC(=O)C(=O)NCC(c2ccco2)S(=O)(=O)c2ccccc2)cc1 (stereo not drawn) -8.56%
N#Cc1nc(-c2ccc(COc3ccccc3)o2)oc1N1CCCCC1 -4.9%
CCCN1CCN(CCCNC(=O)c2ccc3nc(Cc4ccccc4)oc3c2)CC1 -14.3%
CCOc1ccc(CN(CCc2ccc3c(c2)OCO3)Cc2cc(OC)c(OC)cc2OC)cc1 -2.36%
CCCCN1CC(c2nc3ccccc3n2CCCCOc2cccc(C)c2C)CC1=O (stereo not drawn) -36.8%
COc1ccc2c(CNCCc3cccs3)c(C(=O)O)n(Cc3ccc(F)cc3Cl)c2c1 -22.6%
Cn1c(=O)cc(SCC(=O)N2CCN(c3ccccc3F)CC2)c2ccccc21 -12.2%
COc1ccc(-c2cc3nc(C4CCN(C(=O)OC(C)(C)C)CC4)c(C(=O)Nc4cc(C)cc(C)c4)cn3n2)cc1 -11.5%
CCC(Sc1nnc2c3ccccc3n(CC)c2n1)C(=O)Nc1nnc(C(C)C)s1 (stereo not drawn) -26.2%
Cc1cc(-n2c(C)nc3ccccc3c2=O)ccc1NC(=O)c1ccccc1[N+](=O)[O-] -16.2%
Cc1cc(C)cc(NC(=O)CCCc2nc(-c3ccco3)no2)c1 -12.3%
COc1ccc(C)cc1NC(=O)c1cc(S(=O)(=O)N2CCCCC2)c[nH]1 -7.37%
COc1ccccc1C(=O)Oc1ccc(C(c2c(C)[nH][nH]c2=O)c2c(C)[nH][nH]c2=O)cc1 -21.8%
COC(=O)c1cc(-c2ccc(C)cc2)c2c(=O)n(C)c(=O)n(C)c2n1 2.28%
OCCN(CCO)c1ncnc2c1cnn2-c1ccc(F)cc1 -3.15%
Cc1nc(-c2ccc(F)cc2)sc1CCNC(=O)C(=O)Nc1ccc2c(c1)OCCO2 -9.14%
O=C(CCCn1c(=O)c2cccn2c2ccccc21)NCCc1ccc(Cl)cc1 -12%
Cc1ccc(S(=O)(=O)NC(=O)NN2CC3CCCC3C2)cc1 (stereo not drawn) -9.95%
CSc1nn(Cc2ccc(C)cc2)c(N)c1S(=O)(=O)c1ccccc1 -13.7%
COc1cccc(CNC(=O)c2cc(S(=O)(=O)N3CCCCC3)c[nH]2)c1 -11.9%
COc1ccc(-c2cc(C(F)(F)F)nc(NCCc3ccccc3)n2)cc1OC -6.05%
Cc1csc2nc(COC(=O)c3ccccc3NC(=O)c3ccc(C(C)(C)C)cc3)cc(=O)n12 -4.48%
COc1ccc(CC(=O)Nc2ccc(-c3nc4ccccc4s3)c(C)c2)cc1OC 0.328%
COc1ccc2oc(=O)c(C(=O)N3CCN(c4ccc(C)cc4)CC3)cc2c1 -18.1%
Cc1cc(C)n(-c2nc3ccccc3nc2N2CCN(c3cccc(C(F)(F)F)c3)CC2)n1 -10.4%
O=C(NCc1ccccc1Cl)c1ccc2oc(=O)n(Cc3ccccc3)c2c1 -13.6%
Cc1c(CC(=O)NCc2ccc(F)cc2)c(=O)oc2cc(O)c(Cl)cc12 -19%
COc1ccc(NC(=O)CC2NCCNC2=O)c(OC)c1 (stereo not drawn) -2.79%
CCOc1cccc2sc(N(Cc3cccnc3)C(=O)c3ccc(C#N)cc3)nc12 -11.3%
CCOC(=O)c1c(NC(=O)C2c3ccccc3Oc3ccccc32)sc(C)c1C 1.95%
Cc1ccc(-n2c(SCc3ccccc3)nc3c([nH]c4ccccc43)c2=O)cc1 -4.71%
Cc1cccc(-n2nc(C)c(C(=O)Nc3cc(C)ccc3C)c2-n2cccc2)c1 -7.85%
Cc1cc(NC(=O)CCNS(=O)(=O)c2cccc3nsnc23)ccc1Br 4.82%
Cc1ccc(NC(=O)c2ccccc2Br)c(C(=O)c2ccccc2)c1 -5.39%
Cc1nnc(NC(=O)c2ccccc2)s1 -14.8%
CCC1(C)Cc2c(sc3nc(SC)n(-c4ccc(C)cc4)c(=O)c23)CO1 (stereo not drawn) -10.6%
COc1ccc(CNC(=O)c2ccc3nc(-c4ccc(F)cc4)c(-c4ccc(F)cc4)nc3c2)cc1 -10.6%
O=C(Nc1ccc(-c2nc3cc(Cl)ccc3o2)cc1)c1cc2ccccc2o1 -19.3%
CC1CCN(c2nc3ccc(C(=O)NCc4ccccc4)cc3s2)CC1 -11.8%
COc1ccc(Cn2c(SCc3ccc(C(=O)NC(C)c4ccccc4)cc3)nc3cccnc32)cc1 (stereo not drawn) -11.3%
CC(=O)c1c(C)oc2c1cc(NS(=O)(=O)c1ccc(Cl)c(C)c1)c1ccccc12 -12%
O=S(=O)(NCc1nc2cccnc2n1Cc1ccccc1Cl)c1ccc(F)c(Cl)c1 -21.7%
COc1cc(NC(=O)CCCOc2cc(=O)n(C)c3ccccc23)cc(OC)c1OC 3.41%
CCOC(=O)CNC(=O)N1CCN(c2nnc(C)c3c(C)n(-c4ccc(Cl)cc4)nc23)CC1 -5.21%

Source: PubChem BioAssay AID1159614 (National Center for Advancing Translational Sciences (NCATS), 2016)
